Results reported in PMC4336329 (PLoS ONE, 2015).
About 2,200 (0.71%) of roughly 310,000 compounds showed an effect of 50% or more. The effect is printed as a negative number. The list shows a part of the results.

Each compound was assayed against human ether-à-go-go-related gene (hERG) potassium channel (human, UniProt Q12809) (assay: primary screen, population patch clamp on CHO cells stably expressing hERG).
human ether-à-go-go-related gene (hERG) potassium channel, sequence (Q12809 whole entry, looked up): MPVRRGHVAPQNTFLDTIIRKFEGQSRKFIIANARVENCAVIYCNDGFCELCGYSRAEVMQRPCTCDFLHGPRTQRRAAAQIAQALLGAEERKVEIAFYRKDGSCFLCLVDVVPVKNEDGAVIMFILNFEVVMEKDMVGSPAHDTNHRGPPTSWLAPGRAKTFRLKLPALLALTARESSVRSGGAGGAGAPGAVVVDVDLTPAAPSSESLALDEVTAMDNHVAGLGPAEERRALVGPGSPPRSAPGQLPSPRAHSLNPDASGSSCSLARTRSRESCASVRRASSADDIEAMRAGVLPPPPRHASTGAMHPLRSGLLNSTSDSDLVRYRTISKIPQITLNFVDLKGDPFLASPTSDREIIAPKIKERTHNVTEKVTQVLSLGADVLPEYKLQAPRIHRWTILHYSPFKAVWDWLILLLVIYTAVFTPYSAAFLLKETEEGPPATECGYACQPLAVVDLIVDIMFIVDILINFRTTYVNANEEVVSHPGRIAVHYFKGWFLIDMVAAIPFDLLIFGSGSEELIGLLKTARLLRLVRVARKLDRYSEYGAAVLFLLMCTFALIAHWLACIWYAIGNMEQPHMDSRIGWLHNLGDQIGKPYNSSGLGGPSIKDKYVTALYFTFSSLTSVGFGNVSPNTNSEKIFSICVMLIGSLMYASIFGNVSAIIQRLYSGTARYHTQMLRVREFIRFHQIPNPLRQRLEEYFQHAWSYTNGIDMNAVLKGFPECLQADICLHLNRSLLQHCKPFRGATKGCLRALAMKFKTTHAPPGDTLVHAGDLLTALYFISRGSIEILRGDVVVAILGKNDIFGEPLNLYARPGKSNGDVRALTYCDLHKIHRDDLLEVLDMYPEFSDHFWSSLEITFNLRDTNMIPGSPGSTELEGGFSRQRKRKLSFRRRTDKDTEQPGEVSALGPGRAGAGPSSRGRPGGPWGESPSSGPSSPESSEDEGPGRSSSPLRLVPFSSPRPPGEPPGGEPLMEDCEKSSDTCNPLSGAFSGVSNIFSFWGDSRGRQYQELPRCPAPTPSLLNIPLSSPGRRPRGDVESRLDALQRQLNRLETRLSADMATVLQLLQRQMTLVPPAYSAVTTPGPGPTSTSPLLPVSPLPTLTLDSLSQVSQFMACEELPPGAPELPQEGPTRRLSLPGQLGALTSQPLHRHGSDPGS

Row | SMILES | hERG current change (%, negative = inhibition) at 1uM [%]
1 | CN(C)c1ccc(NC(=O)CSc2nnc(C3CCCCC3)n2N)cc1 | 15
2 | CNc1nc(NCc2ccccc2)c2ccccc2n1.Cl | -27.2
3 | COc1ccccc1NC(=O)Cn1c(=O)oc2ccccc21 | 17
4 | Cc1cccc(NC(=O)CN(C2=NC3CS(=O)(=O)CC3S2)c2ccccc2F)c1 (stereo not drawn) | 18.3
5 | Nc1sc2c(c1C(=O)NC1CCS(=O)(=O)C1)CCCC2 (stereo not drawn) | 18.9
6 | O=C(NCc1ccc(F)cc1)c1cc(S(=O)(=O)N2CCCCC2)ccc1N1CCOCC1 | -0.311
7 | COc1ccccc1NC(=O)CCN1C(=O)C2CC=C(Cl)CC2C1=O (stereo not drawn) | 6.44
8 | Cc1cccc(N2CCN(C(=O)Cc3ccc(-n4c(=O)[nH]c5ccsc5c4=O)cc3)CC2)c1C | -3.57
9 | C=CCNC(=O)CN1N=C(c2ccc(C)cc2)CCC1=O | -2.85
10 | Cc1ccsc1/C=C1/CN(C)Cc2c1nc1ccccc1c2C(=O)O.Cl | 21.8
11 | O=S(=O)(c1ccc(Br)cc1)N1CCN(Cc2ccco2)CC1 | 10.6
12 | N#CCSc1nc2ccccc2c(=O)n1CC1CCCC1 | 18.9
13 | CCOC(=O)C1(CC2CCCCO2)CCN(C(=O)NCc2ccccc2)CC1 (stereo not drawn) | 6.92
14 | Cc1ccc(S(=O)(=O)c2ccc(Oc3cccc(C)c3)cc2)cc1 | 7.07
15 | Cc1cc(C)n(CCCNC(=O)c2cc(COc3ccc(C)c(C)c3)on2)n1 | -18.8
16 | CN1CCN(Cc2nc3c(c(=O)[nH]c(=O)n3C)n2Cc2c(F)cccc2Cl)CC1 | 4.86
17 | O=C(CSCc1ccc([N+](=O)[O-])cc1)N/N=C/c1cccnc1 | -11.8
18 | Cc1c(NC(=O)C(C)OC(=O)c2c3c(nc4ccccc24)CCC(C)C3)c(=O)n(-c2ccccc2)n1C (stereo not drawn) | 3.95
19 | COc1cccc(CC2(CO)CCN(Cc3cnc(-c4cccc(C)c4)nc3)CC2)c1 | 13
20 | O=C(CSc1nc2ccccc2s1)N1CCOCC1 | 19.4
21 | O=C(CCN1C(=O)/C(=C/c2cccs2)SC1=S)Nc1cccc(O)c1 | 9.66
22 | COc1ccc(CNC(=O)Cn2nc(C(F)(F)F)c3c2CCC3)cc1 | 4.62
23 | CC(NC(=O)CN(c1cccc(C(F)(F)F)c1)S(C)(=O)=O)c1ccccc1 (stereo not drawn) | 9.7
24 | CCn1c(COc2cccc(OC)c2)nnc1SCC(=O)Nc1cc(OC)ccc1OC | 6.48

Row | SMILES | hERG current change (%, negative = inhibition) at 1uM [%]
25 | COCCN(CCOC)Cc1c(C)[nH]c2ccccc2c1=O | -3.73
26 | O=C(CCc1ccccc1)NCCc1cccs1 | -7.9
27 | C=CCN1C(=O)/C(=C\c2ccc(Cl)cc2)N=C1SCC(=O)NCCC | 10.9
28 | CC(=O)OC1OCCOC1NC(=S)NCc1ccco1 (stereo not drawn) | 8.92
29 | CCOCCCNC(c1ccccc1)c1ccncc1 (stereo not drawn) | 15.3
30 | Cn1nccc1C(=O)N1CCOCC1 | 4.19
31 | CN(c1ccc(C(=O)NC2CC2)cc1)S(=O)(=O)c1ccccc1 | 9.54
32 | Cc1c(NC(=O)C(C)N2C(=O)NC3(CCC(C)CC3)C2=O)c(=O)n(-c2ccccc2)n1C (stereo not drawn) | 14.3
33 | Oc1ccc(/C=N/Nc2nc(-c3cccnc3)nc3ccccc23)c(O)c1 | -4.55
34 | CC(CNC(=O)c1ccccc1Cl)NC(=O)c1ccccc1Cl (stereo not drawn) | 12.3
35 | Cc1ccc(NC(=O)CN2C(=O)S/C(=C\c3ccc(OCC(=O)O)c(Br)c3)C2=O)cc1 | 16.7
36 | CC(/C=C/c1ccccc1)=N/NC(=O)CCC(=O)Nc1ccccc1C | 14.9
37 | CC(Cc1ccccc1)C(=O)Nc1ccc(Br)cc1 (stereo not drawn) | 7.89
38 | Cc1nn(CCC(=O)NNC(=S)Nc2ccccc2)c(C)c1Br | 14.4
39 | CCc1ccccc1Nc1nc2ccccc2n1C(C)C | 10.7
40 | O=C(NCC1CC1(Cl)Cl)Nc1ccc(Cl)c(Cl)c1 (stereo not drawn) | 8.4
41 | COc1cc(/C=N\NC(=O)c2ccc(C)nc2)ccc1OC(=O)c1ccco1 | -7.6
42 | NC(=O)c1c(NC(=O)C2CCCO2)sc2c1CCC2 (stereo not drawn) | -7
43 | Cc1cccc2cc(=O)[nH]c(C)c12 | 8.27
44 | O=C(NCCc1ccccc1)C1(c2ccccc2)CCCC1 | 13.4
45 | COc1ccc(Cl)c2sc(NC(=O)C3=COCCO3)nc12 | 11.9
46 | CC(NC(=O)c1cccs1)c1ccc2c(c1)OCO2 (stereo not drawn) | -1.87
47 | CC(C)(SC(=S)N1CCCCCC1)C(=O)O | 18.2
48 | O=C(Nc1ccccc1)c1ccc2c(c1)OCCCO2 | 3.4

Row | SMILES | hERG current change (%, negative = inhibition) at 1uM [%]
49 | COc1ccccc1CNC(=O)C1CCCN(c2cnccn2)C1 (stereo not drawn) | 15.8
50 | O=C(c1cc2ccccc2o1)N1CCN(Cc2ccc3c(c2)OCO3)CC1 | 2.51
51 | CC(=O)Nc1ccc2c(c1)C(=O)N(C1CCCCC1)C2=O | 3.07
52 | CN(CCc1cnn(C)c1)C(=O)CCc1nnc(CCCc2ccccc2)o1 | 6.58
53 | Cc1nc(N)c(C#N)c(-c2cccnc2)c1C | 1.67
54 | Cc1ccc(NS(=O)(=O)c2cccc(C(=O)NNC(=O)c3ccco3)c2)c(C)c1 | 7.23
55 | CCNc1nc(SC(C(C)=O)C(C)=O)nc(N(C)C)n1 | 13.6
56 | O=C(O)CN1CCN(Cc2ccc(F)cc2Cl)C1=O | 2.82
57 | COc1cc(NC(=S)NC(=O)c2ccccc2C)ccc1NC(=O)c1cccs1 | 16.4
58 | Cn1nc(-c2ccccc2)cc1NS(=O)(=O)c1ccccc1 | 9.07
59 | Cc1ccc(C(=O)NC2CCCCNC2=O)cc1 (stereo not drawn) | 11.2
60 | O=C1C=CC(=O)N1c1cccc(-c2ccccc2)c1 | 11.9
61 | Cc1oncc1C(=O)N1CCCC(CO)(Cc2ccc(F)cc2F)C1 (stereo not drawn) | 11.8
62 | CN(C)c1ccc(CNCCC2CCOC(C)(C)C2)cc1.Cl (stereo not drawn) | 12
63 | CCCCSCCCNC(=O)Nc1ccc(CC)cc1 | 8.64
64 | CCOc1cc(C(=S)N2CCOCC2)ccc1OC(=O)c1cc(OC)c(OC)c(OC)c1 | 11.1
65 | CC(=O)N1CCc2cc(S(=O)(=O)NC(CC(C)C)C(=O)Nc3ccc4c(c3)OCCO4)ccc21 (stereo not drawn) | 15.9
66 | CC1CCCCN1CCCNC(=O)c1c(O)nc2ccccn2c1=O (stereo not drawn) | 20.8
67 | CCN(c1ccccc1)c1ncnc2c1cnn2-c1ccccc1 | 6.26
68 | COc1cccc(CN2CCNC(=O)C2CC(=O)N(C)CCC2CCOCC2)c1OC (stereo not drawn) | 3.28
69 | O=C(NC1=NCCS1)c1ccc(Cl)c(S(=O)(=O)N2CCc3ccccc32)c1 | 8.34
70 | O=C(c1ccc(CNS(=O)(=O)c2cccc(Cl)c2)cc1)N1CCCC1 | 15.2
71 | O=C(O)c1ccc(NS(=O)(=O)/C=C/c2ccccc2)cc1O | 6.71
72 | CC(C)(C)NC(=O)CSc1nc2ccc(Nc3nc(N4CCOCC4)nc(N4CCOCC4)n3)cc2s1 | 0.618

Row | SMILES | hERG current change (%, negative = inhibition) at 1uM [%]
73 | COc1ccc(NC(=O)C2CCCN(S(=O)(=O)c3ccc4c(c3)CC(C)N4C(C)=O)C2)cc1 (stereo not drawn) | 18.6
74 | Cc1ccccc1N1CCN(S(=O)(=O)Cc2ccccc2)CC1 | 13.1
75 | COc1nnc(-c2ccc(N3CCCCC3)c(NC(=O)C3CCCCC3)c2)c2ccccc12 | -0.481
76 | S=C(Cc1ccccc1)NCCc1ccccc1 | -14.9
77 | CCN(CC(=O)NC1CCS(=O)(=O)C1)c1nc(-c2ccccc2)nc2ccccc12 (stereo not drawn) | -8.26
78 | Nc1cc2c([N+](=O)[O-])cccc2o1 | 5.4
79 | COc1cccc(OC)c1CN1CCCC(C(=O)c2cccc(Cl)c2)C1 (stereo not drawn) | -7.07
80 | COc1cccc(NC(=S)N(CCc2c(C)[nH]c3ccccc23)Cc2cccs2)c1 | 10.1
81 | Cc1ccc(CNc2nc3ccccc3s2)s1 | -1.34
82 | O=[N+]([O-])c1ccc([N+](=O)[O-])c(Nc2ccc(N3CCOCC3)cc2)c1 | 9.8
83 | Nc1c(Br)cc(Br)cc1CNC1CCC(O)CC1 (stereo not drawn) | 10.1
84 | O=c1cc(CO)oc(CN2CCN(CCO)CC2)c1O | -8.32
85 | COC(=O)c1sc(SC)c(S(=O)(=O)C(C)C)c1N | 4.81
86 | Cc1ccc(N(NC(=O)C(C)(C)O)C(=O)c2ccccc2)cc1C | 11.4
87 | O=C1C(Cl)=C(NCC2CCCO2)C(=O)N1CCc1ccccc1 (stereo not drawn) | -13
88 | Fc1ccc(/C=N/N2CCCCC2)c(F)c1 | 11.8
89 | O=C(Cn1nnc(-c2ccccc2)n1)NCc1cccs1 | 12.6
90 | COc1ccc(N2CC(C(=O)Nc3ccc(S(=O)(=O)Nc4nccs4)cc3)CC2=O)cc1 (stereo not drawn) | 16.5
91 | COc1ccc(NC(=O)C(=O)N2N=C(C(C)C)CC2(O)C(F)(F)F)cc1 (stereo not drawn) | 5.47
92 | CCOC(=O)c1cc(C#N)c(Oc2ccccc2)nc1-c1ccccc1 | 5.47
93 | O=[N+]([O-])c1ccccc1NC1CCN(Cc2ccccc2)CC1 | -26.7
